Data published in patent publication US12465604B2 (priority 2015, dated 2025).

Legend:
[1] = test system: HIV-OGH double reporter virus in SupT1 cells; assay: Reactivation with TNFα, SupT1 cells infected with HIV-OGH double reporter virus; format: cell-based, HIV-1; conditions: SupT1, increasing concentrations
Description: To corroborate these findings SupT1 cells were infected with the HIV-OGH double reporter virus under different LEDGIN (CX014442) concentrations. SupT1 cells were infected and reactivated under conditions similar to the experiment with HIV tCD34 (FIGS. 2 and 5). Data are represented in FIG. 6. Two different virus dilutions are depicted in panel A and B. In both graphs the percentage eGFP+, mKO2+ cells and overall % mKO2 positive cells is plotted after stimulation with DMSO or TNFα for 24 h. The dashed lines show an increase in percentage of eGFP+, mKO2+ cells after stimulation with TNFα compared to DMSO, while the overall percentage of mKO2 positive cells remains constant. LEDGIN treatment reduces the reactivation of eGFP+, mKO2+ cells in a concentration-dependent manner, with 50 μM of CX014442 reducing reactivation to only 1.5-2 fold (FIG. 6C).
11 days post infection the infected cells were reactivated from latency using TNFalpha (10 ng/mL, Immunosource), SAHA (0.3 to 3 μM, AIDS reagents), prostratin (5 μM, AIDS reagents) or PMA (0.3 μM, AIDS reagents) 24 hours prior to analysis by flow cytometry. Time courses and drug concentrations are indicated in the individual experiments. LEDGINs were synthesized by the Cistim/CD3-facility (courtesy of Dr. A. Marchand).

[2] = test system: OGH reporter virus in activated primary CD4+ T-cells
Source text: Next the role of the LEDGF/p75-IN interplay in activated primary CD4+ T-cells was investigated. Peripheral Blood Mononuclear cells (PBMCs) were purified and CD4+ T-cells selectively enriched using Bi-specific MAb CD3.8 (AIDS reagents) for 5 days and infected with the OGH reporter virus. HIV infection was monitored 3 days post infection using flow cytometry analysis (FIG. 4). […] The lower percentage of latently infected cells in the absence of LEDGIN can be explained by the selective enrichment of CD4+ T-cells and a lower activity of the EF1α promoter in primary cells.
The CD4+ T cells were selectively enriched using Bi-specific MAb CD3.8 (0.5 μg/mL, AIDS reagents) for 5 days. Cells were cultured in RPMI 1640, 15% v/v FBS, 0.1% v/v Gentamicin, 100 U/ml IL-2 (Peprotech) (T-cell medium, TCM). Enriched total CD4+ primary T cells were infected with single round reporter virus for 2 h at 37° C., washed twice in TCM and reseeded in medium containing different concentrations of LEDGIN CX014442. HIV infection was monitored 48 h post infection using flow cytometry analysis.

Compound: CCCC(C(=O)O)c1c(C)nc2ccc(Cl)cc2c1-c1ccccc1 (stereo not drawn) [CX014442, 2-(6-chloro-2-methyl-4-phenylquinolin-3-yl)pentanoic acid]
- decrease in the latent HIV-1 pool (% eGFP−, mKO2+ cells)/(% mKO2+ cells)*100 upon TNFα [1]: counteracted
- fraction quiescent cells (% eGFP−, mKO2+ cells)/(% mKO2+ cells)*100 ([2]; concentration of 25 μM, one representative donor): 46.3%
- % infected cells (% eGFP+/mKO2+ cells or overall % mKO2+ cells) ([2]; trend): dose-dependent decrease
